Data reported in PubChem BioAssay AID743279 (National Center for Advancing Translational Sciences (NCATS), 2014).
Hit rate of the full screen: of about 360,000 compounds, about 17,000 (4.7%) were called active. This list was built around the results that the source calls inconclusive (neither active nor inactive); the mix of calls is not that of the screen. Cut-off read from the data, not from the text of the source: active = activity change below about -50%; inconclusive = mostly about -30% to -49%; inactive = weaker than that.
% is set by controls: 0 for no effect and ±100 for the full control effect.

Test: qHTS for Inhibitors of Inflammasome Signaling: IL-1-beta AlphaLISA Primary Screen
Conditions: THP-1 LPS/ATP IL-1B secretion, 16 h; at 57.5 µM, hits give low values
In short: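 Secreted IL-1B measured by AlphaLISA bead assay after 16 h compound exposure of THP-1 cells; compounds (final up to 57.5 uM) added 1 h before LPS (250 ng/mL) and ATP (1.25 mM) stimulation; lower signal means less secretion.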
For `O=C(CSc1ccccc1C(=O)O)NC1CCCCCCC1`, the activity change was inactive: 10.8%. With `O=C(CCl)Nc1ncc(S(=O)(=O)c2ccc([N+](=O)[O-])cc2)s1` the activity change was inconclusive: -30.8%. With `CC1CCN(c2nc(CN3CCCCC3)nc3scc(-c4ccccc4)c23)CC1` the activity change was active: -73.6%. For `CC(=O)c1cccc(NC(=O)CCc2nnc3ccc(NCc4ccc5c(c4)OCO5)nn23)c1`, the activity change was inactive: 112%. For `CN(CCCNC(=O)C1CCC(=O)N1Cc1ccccc1Cl)c1ccccc1` (centres undefined), the activity change was inactive: -11.7%. With `CC1CC(CC(=O)NC(=S)Nc2ccccc2Cl)C(=O)O1` (centres undefined) the activity change was inactive: -14.1%. With `O=C(CSc1nc2ccccc2c(=O)n1-c1ccccc1)NCC1CCCO1` (centres undefined) the activity change was inactive: -6.65%. With `CN(C)CCN1CC(O)=C(c2nc3ccccc3s2)C1=N` the activity change was inactive: -22.7%. With `COc1ccc(-c2noc(N3CCC(C(=O)Nc4cccc(OC)c4)CC3)n2)cc1` the activity change was inactive: 1.2%. With `CC(NC(=O)COc1cccnc1[N+](=O)[O-])c1ccc(F)cc1` (centres undefined) the activity change was inactive: 13.2%. In the case of `COc1ccc(C(NC(=O)CN2C(=O)NC3(CCc4ccccc43)C2=O)c2ccc(OC)cc2)cc1` (centres undefined), the activity change is reported as active: -63.9%. With `O=C(NC(=S)NC(CO)c1ccccc1)c1ccc(F)cc1` (centres undefined) the activity change was inconclusive: -36.6%. In the case of `N#C/C(=C\c1ccc(O)c([N+](=O)[O-])c1)C(=O)NCc1ccccc1`, the activity change is reported as inactive: 40.5%. In the case of `CC1=C(C(N)=O)C(c2ccccn2)n2nc(-c3ccccc3Cl)nc2N1` (centres undefined), the activity change is reported as inconclusive: -34.7%. With `C=CC(=O)Nc1ccc(Br)cc1` the activity change was inconclusive: -43.3%. For `O=C(Nc1cc(C2CC2)nn1-c1ccccc1)c1ccc(F)cc1`, the activity change was inactive: 4.07%. For `CCOc1ccc(-c2nc(N)ncc2-c2ccccc2)c(O)c1`, the activity change was inconclusive: -44.8%. In the case of `CC(C)(C)NC(=O)C(c1ccc(-c2ccccc2)cc1)N(C[C@H]1CC[C@@H]([C@@H]2CC[C@H](CO)O2)O1)C(=O)c1ccc(C(C)(C)C)cc1` (some centres undefined), the activity change is reported as inconclusive: -39.2%. In the case of `COCCn1c(-c2ccc(OC)cc2)nc2ccccc21`, the activity change is reported as inconclusive: -31.1%. In the case of `O=C(NCCC1=CCCCC1)c1cc(-c2ccncc2)nc2ccccc12`, the activity change is reported as active: -83%. In the case of `CN(Cc1ccccc1)C(=O)c1cccc(NC(=O)C2CCCN(C(=O)OC(C)(C)C)C2)c1` (centres undefined), the activity change is reported as inactive: -2.34%. With `CCCCOc1ccc(C(=O)N/N=C/c2cn[nH]c2-c2ccc(OC)c(OC)c2)cc1` the activity change was active: -56%. In the case of `Cc1ccc(NC(=O)C2CCN(S(=O)(=O)c3ccc4c(c3)NC(=O)C(C)S4)CC2)c(Cl)c1` (centres undefined), the activity change is reported as inconclusive: -43%. With `CCn1c(=O)c(C(=O)CN2CCN(Cc3ccc4c(c3)OCO4)CC2)c(N)n(Cc2ccccc2)c1=O` the activity change was inconclusive: -41.5%.
